Source: PubChem BioAssay AID1259407 (Chemical Carcinogenesis Research Information System (CCRIS), 2018)
“Also recorded” adds a separate entry of the source. A number of entries come with more than one value. This list holds those alone. No rule for the calls is given here. There may be further records. The values listed for one entry differ for a reason that is not stated; they may come from other doses, times, organisms or constructs than stated. Brackets tell where a record comes from. A, B and so on number the origins entry by entry. Signs of the kind (2×) count equal records among those shown.

System: CCRIS mutagenicity, Ames/micronucleus/aberration tests
Experiment: CCRIS mutagenicity studies
[1] = End Point: IN VITRO CHROMOSOMAL ABERRATIONS, Test System: CHL CELLS, Metabolic Activation: NONE
[2] = Test System: AMES SALMONELLA TYPHIMURIUM, Strain/Indicator: TA100, Metabolic Activation: NONE, Method: PREINCUBATION
[3] = Test System: MOUSE LYMPHOMA, Strain/Indicator: L5178Y (TK+/TK-), Metabolic Activation: NONE, Method: SUSPENSION/PLATE

Compound: Nc1cc(N)cc(C(=O)O)c1
- mutagenic call [1]: active; positive (structural changes) and inactive; negative

Compound: Cc1cc(-c2ccc(N=C=O)c(C)c2)ccc1N=C=O
- mutagenic call [1]: inactive; negative; authors report equivocal results for structural changes at 0.4 mg/ml f; also recorded: inactive; negative; authors report equivocal results for ploidy changes at the highest dos

Compound: CN=C=O
- mutagenic call [2]: inactive; negative [study A] and active; positive [study B]
- mutagenic call (Test System: AMES SALMONELLA TYPHIMURIUM, Strain/Indicator: TA104, Metabolic Activation: NONE, Method: PREINCUBATION): inactive; negative [study A] and active; positive [study B]
- mutagenic call [3]: active; positive [study A]; also recorded: active; positive. reevaluation of results: positive [study B]

Compound: O=C1OC(O)C(C(Cl)Cl)=C1Cl (stereo unspecified)
- mutagenic call (Test System: CHINESE HAMSTER OVARY, Strain/Indicator: CHO (NA/K ATPASE)/OUABAIN, Metabolic Activation: NONE): active; positive [1 to 3 µg/mL] and active; positive [10 to 30 µg/mL] and inactive; negative [10 to 30 µg/mL]

Compound: OCc1ccccc1
- mutagenic call [3]: active; positive (2×) and inactive; negative

Compound: C[C@@H](CN1CC(=O)NC(=O)C1)N1CC(=O)NC(=O)C1
- mutagenic call (Test System: Mouse lymphoma, Strain/Indicator: L5178Y (tk+/tk-), Metabolic Activation: None, Method: Suspension/plate): active; inconclusive (previous evaluation positive); also recorded: active; positive
- mutagenic call (Test System: Mouse lymphoma, Strain/Indicator: L5178Y (tk+/tk-), Metabolic Activation: Rat, Liver, S-9, Aroclor 1254, Method: Suspension/plate): inactive; inconclusive (previous evaluation negative); also recorded: active; positive

Compound: Nc1ccccc1
- mutagenic call (End Point: In vivo micronucleus, Test System: Bone marrow erythrocytes, Species: Mouse, Strain/Sex: CRH/Male, Route: Oral): active; positive at 1,000 mg/kg (p<0.05) and inactive; negative
- mutagenic call (End Point: In vivo micronucleus, Test System: Bone marrow erythrocytes, Species: Rat, Strain/Sex: PVG/Male, Route: Oral): active; positive, p<0.01 and inactive; negative

Compound: CCOS(=O)(=O)OCC
- mutagenic call [1]: active; positive (structural and ploidy changes); also recorded: active; positive (structural changes)

Compound: ClCC(Cl)CCl
- mutagenic call (Test System: AMES SALMONELLA TYPHIMURIUM, Strain/Indicator: TA98, Metabolic Activation: RAT, LIVER, S-9, AROCLOR 1254 (10%), Method: PREINCUBATION): inactive; negative and active; positive

Compound: Nc1cccc(Cl)c1
- mutagenic call (Test System: AMES SALMONELLA TYPHIMURIUM, Strain/Indicator: TA98, Metabolic Activation: HAMSTER, LIVER, S-9, AROCLOR 1254 (10%), Method: PREINCUBATION): inactive; negative and active; positive

Compound: BrCC(Br)C1CCC(Br)C(Br)C1 (stereo unspecified)
- mutagenic call (End Point: IN VITRO CHROMOSOMAL ABERRATIONS, Test System: CHL CELLS, Metabolic Activation: S-9): inactive; negative; also recorded: active; positive (structural changes); also recorded: active; positive (structural changes); interlaboratory comparison between 2 labs both re
- mutagenic call (End Point: IN VITRO CHROMOSOMAL ABERRATIONS, Test System: CHO CELLS, Metabolic Activation: S-9): inactive; negative (2 independent analyses); also recorded: active; positive (structural changes) (2×)

Compound: Cc1cc([N+](=O)[O-])ccc1N
- mutagenic call (Test System: AMES SALMONELLA TYPHIMURIUM, Strain/Indicator: TA98, Metabolic Activation: NONE, Method: PREINCUBATION): active; positive [study A] and inactive; negative [study B]

Compound: Oc1cc(Cl)c(Cl)c(Cl)c1
- mutagenic call (End Point: IN VITRO CHROMOSOMAL ABERRATIONS, Test System: CHINESE HAMSTER LUNG CELLS (CHL), Metabolic Activation: NONE): inactive; negative; also recorded: inactive; negative; authors describe results as equivocal

Compound: CC(Cl)(Cl)Cl
- mutagenic call (End Point: In vitro chromosomal aberrations, Test System: Chinese hamster lung (CHL/IU) cells, Metabolic Activation: None): inactive; negative (structural changes and ploidy showed weak response without dose respon; also recorded: inactive; negative. authors considered overall results for 1,1,1-trichloroethane to be equ; also recorded: active; positive (ploidy). authors considered overall results for 1,1,1-trichloroethane

Compound: Nc1ccc2c(c1)C(=O)c1ccccc1C2=O
- mutagenic call [1]: active; positive (structural and ploidy changes); precipitation occurred at 1.2 mg/ml; also recorded: active; positive (structural and ploidy changes)
- mutagenic call (Test System: AMES SALMONELLA TYPHIMURIUM, Strain/Indicator: TA100, Metabolic Activation: MOUSE, LIVER, S-9, Method: STANDARD PLATE): active; positive and inactive; negative
- mutagenic call (Test System: AMES SALMONELLA TYPHIMURIUM, Strain/Indicator: TA100, Metabolic Activation: RAT, LIVER, S-9, Method: STANDARD PLATE): inactive; negative and active; positive
- mutagenic call (Test System: AMES SALMONELLA TYPHIMURIUM, Strain/Indicator: TA1535, Metabolic Activation: HAMSTER, LIVER, S-9, AROCLOR 1254, Method: STANDARD PLATE): inactive; negative and active; positive
- mutagenic call (Test System: AMES SALMONELLA TYPHIMURIUM, Strain/Indicator: TA1535, Metabolic Activation: RAT, LIVER, S-9, AROCLOR 1254, Method: STANDARD PLATE): active; positive and inactive; negative
- mutagenic call (Test System: AMES SALMONELLA TYPHIMURIUM, Strain/Indicator: TA1535, Metabolic Activation: RAT, LIVER, S-9, Method: STANDARD PLATE): active; positive and inactive; negative
- mutagenic call (Test System: AMES SALMONELLA TYPHIMURIUM, Strain/Indicator: TA1537, Metabolic Activation: NONE, Method: STANDARD PLATE): inactive; negative and active; positive
- mutagenic call (Test System: E. COLI, Strain/Indicator: WP2 UVRA, Metabolic Activation: HAMSTER, LIVER, S-9, AROCLOR 1254, Method: STANDARD PLATE): inactive; negative and active; positive
- mutagenic call (Test System: E. COLI, Strain/Indicator: WP2 UVRA, Metabolic Activation: MOUSE, LIVER, S-9, AROCLOR 1254, Method: STANDARD PLATE): inactive; negative and active; positive
- mutagenic call (Test System: E. COLI, Strain/Indicator: WP2 UVRA, Metabolic Activation: RAT, LIVER, S-9, AROCLOR 1254, Method: STANDARD PLATE): inactive; negative and active; positive

Compound: CC(=O)[O-].CC(=O)[O-].O.O.O.O.[Co+2]
- mutagenic call (Test System: Ames Salmonella typhimurium, Strain/Indicator: TA98, Metabolic Activation: None, Method: Preincubation): active; positive (2×) and active; positive (two experiments)
- mutagenic call (Test System: Ames Salmonella typhimurium, Strain/Indicator: TA100, Metabolic Activation: None, Method: Preincubation): active; positive and inactive; negative and active; positive (two experiments)
- mutagenic call (Test System: Ames Salmonella typhimurium, Strain/Indicator: TA1537, Metabolic Activation: None, Method: Preincubation): active; positive (2×) and active; positive (two experiments)

Compound: C1O[C@@H]1[C@H]1CO1
- mutagenic call (End Point: IN VIVO MICRONUCLEUS, Test System: BONE MARROW POLYCHROMATIC ERYTHROCYTES, Species: RAT, Strain/Sex: SPRAGUE-DAWLEY/MALE, Route: IP INJECTION (ONE DOSE)): active; positive; also recorded: inactive; negative; also recorded: inactive; negative; significant increase occurred at 30 mg/kg with 48 hr treatment

Compound: Oc1cccc2cccnc12
- mutagenic call [1]: inactive; negative and active; positive (structural changes)

Compound: O=[N+]([O-])c1cc(Cl)ccc1Cl
- mutagenic call [1]: inactive; negative; authors report equivocal results for ploidy changes at the highest dos; also recorded: inactive; negative
- mutagenic call [2]: inactive; negative [study A] and active; positive [study B]
